Test results as given in the supplement of paper PMC10126150.
Sequences with one replicate were seen in a single cluster, so their values are uncertain.

Test system: ATP
Assay: switch fluorescence ratio, 500 uM ATP over buffer (Cy3 cluster intensity, sum of 5 cycles each) (fold (ratio)); higher = stronger signal-on switching upon ATP binding; sequences stand for … in TCGTCGGCAGCGTCAGATGTGTATAAGAGACAGTTTTTTTTTTTTTTTTTTTTTTTTT…TC
Settings: aptamer strand: ATP DNA aptamer (quencher-CACCTGGGGGAGTATTGCGGAGGAAGG + anchor), 100 nM annealed; ATP concentration: 500 uM; one replicate
In short: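 Imaging in selection buffer was followed by imaging after 15 min with 500 uM ATP at 22 °C, for Cy3-labelled switching-strand clusters annealed to 100 nM quencher-labelled ATP aptamer on a modified Illumina MiSeq flow-cell. Five of these buffer/ATP cycles ran, separated by NaOH stripping and re-annealing. The fluorescence ratio per cluster is summed target-cycle over summed buffer-cycle Cy3 intensity, averaged per switch-domain sequence; clusters outside 100-1000 RFU were removed.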
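Also: ATP exposure 15 min at 22 °C before imaging.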

| Sequence | switch fluorescence ratio |
| --- | --- |
| CTGCTGGGAC | 1.25 |
| TGAGGCGTAT | 0.983 |
| CGAAAGTCGG | 0.964 |
| TATGACCACA | 1.04 |
| CAGCTGTGGC | 0.986 |
| TTTACTCGTT | 1.04 |
| GGTATAGAAA | 1.05 |
| GAATGTAATA | 1.06 |
| TCAAACGTCA | 1.07 |
| GCCTGTTGAC | 1.4 |
| TAGCCCCGTC | 0.965 |
| GTATGCCCTG | 1.02 |
| AGAAAGTGC | 1.01 |
| CGAAAGTT | 0.933 |
| GTCTGAGAAC | 0.97 |
| CTTTTTTCCC | 0.962 |
| ATGTTAGAAG | 1 |
| GCGCGTATCC | 1.06 |
| TTATCCGTGG | 0.99 |
| ACTTCATGGT | 1 |
| TAACTGGTCC | 1.05 |
| ATCTCCTTAT | 1.19 |
| CCTCTTGTGG | 1.04 |

| Sequence | switch fluorescence ratio |
| --- | --- |
| CCAAGCAAAG | 2.65 |
| GTTCAGCCAG | 1.16 |
| ACTAGCCAGG | 1.62 |
| CGGCCCCGA | 1.01 |
| AATGGTACAA | 1.01 |
| GAAGAGGTTA | 1.03 |
| ACGGAAGGCC | 1.09 |
| AAGTTTCACA | 1.06 |
| GGGGGTCGTC | 0.955 |
| GGTTGTAGTG | 0.981 |
| TAACTCTCT | 1.01 |
| ACAGAGTTGT | 1.01 |
| ATCTCCCGAA | 1.1 |
| ATGTTGCCGC | 0.946 |
| CGATAAGATC | 1.07 |
| ATAGCTTGAA | 0.939 |
| GTTATAGTCC | 1.06 |
| CGTAGATGGG | 0.98 |
| CAGAAGCCC | 1.02 |
| GCTTTGCAGG | 0.977 |
| CAAAGAAACT | 1.05 |
| TCTAGGGGCT | 1.04 |
| GGCATCCGTA | 0.988 |

| Sequence | switch fluorescence ratio |
| --- | --- |
| CATTGGCCCG | 1.02 |
| TTTGAGACAA | 1.1 |
| TGGGACGAGC | 1.03 |
| AGTGTGTCGA | 0.981 |
| GTGCCTCTGT | 0.978 |
| TGCCTTACCT | 1.23 |
| CCACAGAGC | 1.02 |
| TAGTCGCCTG | 0.97 |
| GGGACTTAGG | 1.01 |
| AAACGCATGT | 0.97 |
| TGACTTTGGT | 0.972 |
| AGTCAAACTC | 1.11 |
| GAGTTAACTG | 0.806 |
| GCCTGTTTT | 0.945 |
| GTTCTATTTA | 0.982 |
| TCATGGGGGC | 1.02 |
| TCGCACATGA | 1.64 |
| AACTAGGCTG | 1.04 |
| GCGCTGTAAC | 1.32 |
| CTGACTCGCT | 2.45 |
| AGATTAATGC | 1.02 |
| TTCGCACGGT | 0.997 |
| TGCTATAACC | 1.02 |

| Sequence | switch fluorescence ratio |
| --- | --- |
| AGAAATGTTG | 0.943 |
| CCCATGACGG | 1.05 |
| GGCGTCTCAC | 1 |
| GAGAAGCCAT | 0.984 |
| AGACACAATG | 1.03 |
| GTGATGTTAT | 1.01 |
| CGGGAGAGCA | 1 |
| TGGGTCTAAA | 0.977 |
| GCTTGGTTGC | 0.96 |
| TGGGACGGAT | 1.03 |
| TAGTAAACTC | 0.989 |
| ATGCAACCCT | 1.01 |
| CTCGATATTT | 0.969 |
| TGCCGCTTCA | 1 |
| TTCCGGCAAT | 1.59 |
| GTTGACTCCT | 0.987 |
| GAGTTAAAGG | 1 |
| GGTCCTAGCG | 0.958 |
| TTGCGTCG | 0.991 |
| GGTGGGTAGC | 0.984 |
| AGCGTTCCGG | 1.02 |
| AGGGTTTGT | 1.02 |
| ATTTTAAGAA | 0.998 |

| Sequence | switch fluorescence ratio |
| --- | --- |
| TGGTATTAAA | 1.03 |
| CGTCACAGGG | 1.12 |
| TGCTTAGTGG | 0.959 |
| GAGTTTTATT | 1.01 |
| CCGGAGAATA | 4.98 |
| ACCTAAATCA | 1.02 |
| GACTTGCTCG | 0.998 |
| CGCCTGCATC | 1.89 |
| TTAACGACAG | 1.04 |
| GATTAAGGTG | 1.19 |
| AGAATTTTTC | 0.963 |
| ACCAGGAGCG | 0.812 |
| ATTTGAGCCT | 1.07 |
| GTAGTTTTAT | 0.965 |
| GGGTTCGACT | 1.05 |
| CCCATTGAGG | 1.03 |
| TTTTCCCGTT | 1.01 |
| AGGGCACTTT | 1.06 |
| ACTGCTATTT | 1.14 |
| GACGAGGTGT | 1.08 |
| CCGATTAGGT | 1.03 |
| GATCAATCGT | 1.02 |
| TTGTAGACT | 1.03 |

| Sequence | switch fluorescence ratio |
| --- | --- |
| CGAGGGCGGT | 1.07 |
| ATGATGATAA | 0.961 |
| TCGAGTCCAG | 1.13 |
| AGGTTTACGT | 0.972 |
| TGTCGGCGGG | 0.963 |
| GCCTACTGTG | 1.04 |
| GGAGGCGAAG | 1.01 |
| TGTTCGAG | 1.01 |
| GCTGGAAGAA | 0.996 |
| AAATGCGGGT | 1 |
| AGGATAGCGT | 0.969 |
| CCGGTAGTTA | 1.21 |
| AACGGGTTCA | 1.03 |
| TTCTTTAATC | 1.01 |
| CATGCTATGC | 1.17 |
| TCGCGGATTT | 0.986 |
| AAGCGTCTG | 0.936 |
| ATCGTTACCC | 1.04 |
| GCGCCGTTTT | 1.01 |
| CGGACAAGC | 1.19 |
| CGGAGCGGAT | 1.34 |
| TCAGGAATAT | 1 |
| AGTATATTGC | 1.22 |

| Sequence | switch fluorescence ratio |
| --- | --- |
| TACTGGCTTC | 0.996 |
| TAAGGAATCC | 1.05 |
| TTAGCGCTAA | 1.02 |
| GAAGAAGCA | 1.01 |
| AAATCTAGAG | 1.01 |
| GGTCAAAACG | 1.03 |
| TACTAGCTTT | 0.985 |
| TCGTGAGGGA | 0.949 |
| AGGGGCAATG | 1.17 |
| AATCTAGGTG | 1.29 |
| GACTAGTTG | 1.01 |
| GCTGCCCGGA | 1.03 |
| ATTTGGCTCA | 0.998 |
| CCTTTTCTCA | 0.94 |
| ATCTAACGGT | 1.01 |
| ATTCTATGGG | 1 |
| CGGCTCTTGC | 0.98 |
| GCTAACATAC | 1.73 |
| GGGTCTTAAC | 0.992 |
